# The antibiotic and cytotoxicity screens of Wong et al. (2023)
# The other results are listed elsewhere or left out.
# Assays:
# HSkMC = human skeletal muscle cells; test: cytotoxicity call (relative viability < 0.9); conditions: 10 µM
# HepG2 = test: cytotoxicity call (relative viability < 0.9); conditions: 10 µM
# S. aureus RN4220 = test: growth inhibition call (relative growth <= 0.2); conditions: 50 µM
Compound,cytotoxicity call (HSkMC),cytotoxicity call (HepG2),growth inhibition call (S. aureus RN4220)
COc1ccc2c3c([nH]c2c1)[C@@H](CO)N(C[C@]13CCN(CC1)Cc1ccccc1)S(=O)(=O)c1cn(cn1)C,inactive,inactive,inactive
O=C(CCCCC(=O)N/N=C/[C@H](O)[C@@H](O)[C@H](O[C@@H]1O[C@H](CO)[C@H](O)[C@H](O)[C@H]1O)[C@H](O)CO)NO,inactive,inactive,inactive
C[C@H](CO)N1C[C@H](C)[C@H](CN(C)C(=O)Nc2ccc3c(c2)OCO3)OCCCC[C@H](C)Oc2ccc(NC(=O)CCC(F)(F)F)cc2C1=O,inactive,inactive,inactive
C[C@@H]1CN([C@@H](C)CO)S(=O)(=O)c2ccc(Br)cc2O[C@@H]1CN(C)Cc1ccc2c(c1)OCO2,inactive,inactive,inactive
C[C@@H]1CCCCO[C@@H](CN(C)C(=O)Nc2cccc3ccccc23)[C@@H](C)CN([C@@H](C)CO)C(=O)c2cc(NC(=O)Cc3ccccc3)ccc2O1,inactive,inactive,inactive
C[C@@H]1CN([C@H](C)CO)S(=O)(=O)c2ccc(C#CCC3CCCC3)cc2O[C@H]1CN(C)C(=O)c1cnccn1,inactive,inactive,inactive
COc1ccc(CN(C)C[C@@H]2Oc3c(NC(=O)C4CCOCC4)cccc3C(=O)N([C@H](C)CO)C[C@H]2C)cc1,inactive,inactive,inactive
C[C@@H]1CN([C@@H](C)CO)C(=O)c2cc(NS(=O)(=O)c3ccc(Cl)cc3)ccc2O[C@@H]1CN(C)S(=O)(=O)c1cn(C)cn1,inactive,inactive,inactive
NNCCc1ccccc1,inactive,inactive,active
